Reference: PubChem BioAssay AID504832 (National Center for Advancing Translational Sciences (NCATS), 2011)
Values joined by “and” are separate entries in the source; they are usually repeats but may differ in a detail not shown here. Identical values can stand only once. Among all 310,000 compounds or so, about 18,000 (5.8%) were called active. The shares of active, inactive and inconclusive entries below differ from those in the screen. The call rests on the fitted dose curve; in most records, active means well fitted inhibition curve with a large enough effect; inconclusive means small, poorly fitted or top-dose-only effect, or another doubt; inactive means no such curve, though single readings can be large or run the other way. Potencies beside an inconclusive call are fits to weak or partial responses and may not hold up.

Assay: Primary qHTS for delayed death inhibitors of the malarial parasite plastid, 48 hour incubation
Conditions: P. falciparum luciferase growth in erythrocytes; series mostly up to 28.7 µM; activity change, negative = inhibition: at the top concentration
Procedure, shortened: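 Parasite viability was followed by luminescence of a genomically integrated firefly luciferase. Cultures held 0.1% parasitemia at 2% hematocrit (final), incubated under 5% CO2 at 37 C.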
On the % scale 0 is the no-effect control and ±100 the full control effect; potency means the concentration at half of the fitted maximal effect; tags describe the fitted curve by direction and shape.

Structure (SMILES)	Potency	activity change, negative = inhibition
Cc1ccccc1NC(=S)N(Cc1cccnc1)Cc1ccccc1Cl	inconclusive: 16.5 µM [inhibitor, single point]	
CCCCN1C2=NCCCN2c2ccccc21	inconclusive: 11.7 µM [inhibitor, single point]	
Cc1nc2sccc2c(=O)n1N		inactive: 11.9%
O=C(CN1CCN(Cc2ccccc2)CC1)Nc1ccccc1-c1ccccc1	inconclusive: 18.5 µM [inhibitor, single point]	
COc1ccccc1CN1C(=NC(=O)CCC2CCCC2)SC2CS(=O)(=O)CC21 (configuration not stated)	inconclusive: 11.7 µM [inhibitor, partial curve, poor fit]	
Cc1ccc(C2=NN=C(NC(=O)CSc3nnc4c5ccccc5n(C)c4n3)SC2)cc1	active: 3.29 µM	
c1ccc(Cc2ccc(OCCCNC3CCCC3)cc2)cc1	inconclusive: 11.7 µM [inhibitor, single point]	
O=S(=O)(c1ccc(C2CCCCC2)cc1)N1CCCC1	inconclusive: 9.28 µM [inhibitor, single point]	
COc1ccc(C(CNC(=O)c2ccc(Cl)c(NC(=O)c3cccs3)c2)N2CCCC2)cc1 (configuration not stated)	active: 10.4 µM	
COc1ccccc1N1CCN(C(=O)CSc2nnc3c4ccccc4nc(Cc4ccccc4)n23)CC1	inconclusive: 1.31 µM [inhibitor, full curve]	
CNc1cc(OC)c(C(=O)N[C@@H]2CCN(Cc3ccccc3)[C@H]2C)cc1Cl	inconclusive: 8.49 µM [inhibitor, partial curve, poor fit]	
CC/C(=N\NC(=S)NC(C)C)c1ccc(OC)c(OC)c1	inconclusive: 9.28 µM [inhibitor, partial curve, poor fit]	
COc1cccc(CC(=O)OCC(=O)Nc2nnc(-c3ccccc3)o2)c1	inconclusive: 0.233 µM [inhibitor, partial curve, poor fit]	
CCO[C@@H]1OC(C(=O)NCc2nc3ccccc3[nH]2)=C[C@H](c2ccccc2)[C@H]1CCCO	inconclusive: 6.57 µM [inhibitor, partial curve, poor fit]	
Cc1ccc(NC(=O)CN(C)Cc2nc3c(Br)cc(Br)cc3c(=O)[nH]2)cc1		inactive: -1.39%
CCOc1ccccc1Nc1nc2ccccc2n1C(C)C	inconclusive: 10.4 µM [inhibitor, partial curve, poor fit]	
O=C(N/C=C/n1cnc2cc(C(F)(F)F)ccc21)c1ccccc1	inconclusive: 11.7 µM [inhibitor, single point]	
COc1cccc(C(=O)C(C#N)=C(SC)SC)c1	inconclusive: 0.0329 µM [inhibitor, full curve, poor fit]	
CC(C)CCNC(=O)c1ccc(Cn2c(=S)[nH]c3ccccc3c2=O)cc1	inconclusive: 11.7 µM [inhibitor, partial curve]	
COc1ccc(/C=C2\SC(N3CCc4ccccc4C3)=NC2=O)cc1OC		inactive: 8.45%
O=C(NCCCNC(=O)c1c(F)cccc1F)c1c(F)cccc1F		inactive: 11.4% [at 0.00184 µM]
CC(C)(C)C(O)C(Oc1ccc(Cl)cc1)n1cncn1 (configuration not stated)	inconclusive: 11.7 µM [inhibitor, partial curve]	
Cc1ccnc(NC(=O)c2ccc(S(=O)(=O)N3CCCCC3)cc2)c1	inconclusive: 11.7 µM [inhibitor, single point]	

Structure (SMILES)	Potency	activity change, negative = inhibition
C=CCc1ccc(OCCCCN2CC(C)CC(C)C2)c(OC)c1 (configuration not stated)	inconclusive: 11.7 µM [inhibitor, single point]	
Fc1ccc(Cn2nnnc2C(c2ccc(Cl)cc2)N2CC=C(c3ccc(F)cc3)CC2)cc1 (configuration not stated)	active: 11.7 µM	
Oc1ccccc1/C=N/Nc1ncc(Br)cn1	active: 2.08 µM	
COc1ccc(N2CCN(C(=O)CN3C(=O)COc4ccccc43)CC2)cc1		inactive: 2.97%
CC(C)(C)c1cc[n+](CC(=O)Nc2cc(C(F)(F)F)ccc2N2CCOCC2)cc1	inconclusive: 13.1 µM [inhibitor, partial curve]	
c1ccc(-c2ccc(OCCCNC3CCCC3)cc2)cc1	active: 13.1 µM	
O=c1c2oc3ccccc3c2ncn1Cc1ccccc1F	inconclusive: 16.5 µM [inhibitor, partial curve, poor fit]	
CCC(C)(C)NC(=O)COc1ccc(OCc2ccccc2)cc1		inactive: 7.08%
O=C(c1cc(S(=O)(=O)N2CCOCC2)ccc1Cl)N1CCC(Cc2ccccc2)CC1	inconclusive: 11.7 µM [inhibitor, single point]	
CC(C)CC(C(=O)NC(C)(C)C)N(CC1CCCO1)C(=O)c1snc(C(N)=O)c1N (configuration not stated)		inactive: -0.179%
COc1cc(NC(=O)Cn2nc(C(F)(F)F)c3c2CCCC3)cc(OC)c1OC	active: 10.4 µM	
COc1ccc(-c2cc3nc(C)cc(NCCO)n3n2)cc1		inactive: -28.1%
CNC(=S)NC1CC2CCCC(C1)N2Cc1ccccc1OC (configuration not stated)	inconclusive: 9.28 µM [inhibitor, partial curve, poor fit]	
CCOC(=O)/C=C1\CN(Cc2cc(OC)c(OC)c(OC)c2)S(=O)(=O)c2ccccc21	inconclusive: 0.0026 µM [inhibitor, full curve, poor fit]	
CC1CC(C)CN(C(=O)CCCn2c(=S)[nH]c3ccccc3c2=O)C1 (configuration not stated)	inconclusive: 18.5 µM [inhibitor, single point]	
COc1ccc(-n2c(Cc3cccn3C)nnc2SCC(=O)Nc2cccc(C)c2C)cc1	inconclusive: 0.828 µM [inhibitor, partial curve, poor fit]	
O=C(O)CCC(=O)Nc1ccc(-c2nc3ccc(C(=O)c4ccccc4)cc3[nH]2)cc1		inactive: 66.8%
C[C@@H](CN(C)C)CN1c2ccccc2CCc2ccccc21	inconclusive: 8.09 µM [inhibitor, single point]	
Cc1c(NS(=O)(=O)c2ccc3nc(COc4ccccc4Cl)[nH]c3c2)c(=O)n(-c2ccccc2)n1C	inconclusive: 6.57 µM [inhibitor, partial curve, poor fit]	
O=C(CN1C(=O)NC2(CCCCCC2)C1=O)N1CCC(Cc2ccccc2)CC1	inconclusive: 18.5 µM [inhibitor, single point]	
Cc1ccc(-c2cc(C(=O)NN3CCOCC3)c3cc(Br)ccc3n2)o1		inactive: -3.64%
O=S(=O)(c1ccc(Cl)cc1)N1CCN(c2nc(-c3cccs3)nc3ccccc23)CC1	active: 3.7 µM	
Cc1ccc2nc(N(CCCN(C)C)C(=O)c3ccc(S(=O)(=O)N4CCOCC4)cc3)sc2c1		inactive: -24.1%

Structure (SMILES)	Potency	activity change, negative = inhibition
CCn1ccnc1CN1CCN(CCC(C)C)C(CCO)C1 (configuration not stated)		inactive: 3.71%
CC(C)(C)c1ccc(-c2nc3[nH]c(=O)cc(NC(=O)c4ccco4)n3n2)cc1	active: 10.4 µM	
Cc1ccccc1Nc1cc(C(=O)NCC2CCCO2)c2ccccc2n1 (configuration not stated)	inconclusive: 14.7 µM [inhibitor, partial curve, poor fit]	
COc1cc(OC)cc(C(=O)NCCCCCCNC(=O)c2cc(OC)cc(OC)c2)c1	inconclusive: 10.4 µM [inhibitor, single point]	
Cc1onc(-c2c(F)cccc2Cl)c1C(=O)NNC(=O)C1CCN(Cc2ccccc2)CC1	inconclusive: 16.5 µM [inhibitor, single point]	
Cc1cc2c(c(=O)n1Cc1cccnc1)C(c1ccc(F)cc1)C(C#N)=C(N)O2 (configuration not stated)	inconclusive: 0.294 µM [inhibitor, full curve]	
CCC(=O)NC(C)c1cc(Cl)c2cccnc2c1O (configuration not stated)	inconclusive: 13.1 µM [inhibitor, single point] and inconclusive: 6.57 µM [inhibitor, partial curve, poor fit]	
COC(=O)C(NC(=O)c1ccc(OC)cc1)(Nc1ncc(S(=O)(=O)c2ccc([N+](=O)[O-])cc2)s1)C(F)(F)F (configuration not stated)	active: 8.28 µM	
NC(=O)CC(NC(=O)Cc1ccc(Cl)cc1)c1ccc(NCc2ccccc2)c([N+](=O)[O-])c1 (configuration not stated)	inconclusive: 18.5 µM [inhibitor, partial curve, poor fit]	
c1ccc(-c2cnnc(SCc3cn4cccnc4n3)n2)cc1	active: 10.4 µM	
CN1c2ccc(Cl)cc2C(=O)NC1c1ccc([N+](=O)[O-])s1 (configuration not stated)	inconclusive: 10.4 µM [inhibitor, single point]	
Cc1nn(CC(=O)c2cccc(Cl)c2)c(C)c1[N+](=O)[O-]		inactive: -16.6%
CCOc1ccc(OCCNC(=O)c2cc(C3CC3)nc3c2cnn3C(C)C)cc1	active: 10.4 µM	
COc1ccc(NC(=O)/C(Cl)=C(/Cl)S(=O)Cc2ccccc2Cl)cn1 (configuration not stated)	inconclusive: 4.15 µM [inhibitor, partial curve, poor fit]	
COc1ccc(OC)c(C(=O)NC(CC(N)=O)c2ccc(NCCN3CCOCC3)c([N+](=O)[O-])c2)c1 (configuration not stated)		inactive: -24.7%
O=C(CCCOc1ccccc1)Nc1nccs1	inconclusive: 14.7 µM [inhibitor, partial curve]	
CCN(CC)CCCn1c(=S)[nH]c2ccc(Cl)cc2c1=O	inconclusive: 13.1 µM [inhibitor, partial curve, poor fit]	
CSc1ccc(/C=N/n2c(Cc3ccc(Br)cc3)n[nH]c2=S)cc1	inconclusive: 13.1 µM [inhibitor, partial curve, poor fit]	
O=C(NNc1ccccc1Br)C(O)(c1cccc(C(F)(F)F)c1)c1cccc(C(F)(F)F)c1	active: 2.62 µM	
O=C(NCCN1CCOCC1)c1ccc2c(c1)N(Cc1ccc(F)cc1)C(=O)c1ccccc1S2(=O)=O	inconclusive: 14.7 µM [inhibitor, partial curve]	
O=[N+]([O-])c1ccc(O)c2ncccc12	active: 13.1 µM and active: 13.5 µM	
